First the molecules themselves.
B1: ENSG00000070961:be:win_3301|CDS|ENSG00000070961|bound_else_gene|NA|bound_elsewhere_windowed (ssRNA)
RNA: GGGAGUUCUACAGUCCGACGAUCCGGCGUGGCCAAAUCUUGUGGUUUAGAGGUCUGAACAGAAUCCAAACACAGAUUCGAGUGGUGAAUGCAUUUCGUAGUUCUUUAUAUGAAGGGUUAGAAAAACCGGAAUCAAGAAGUUCGCAACAGAGGAUUGAGCAUCA
B2: chrX:101625945:101626046:+|CDS|ENSG00000102401|unk|FALSE|unique (ssRNA)
RNA: GGGAGUUCUACAGUCCGACGAUCAGGUUCACUUUUUUUCUUUUUAAAAGAAUUUCAAGUGUGUGCUGAUAAGGUUCUGGGAAUAGAAAGUCACCAUGAUUUUUUGGUGAAAGUAAAAGUUGGAAAAUUCAUGGCCAAACUUGCCAACAGAGGAUUGAGCAUCA
B3: chr2:37256661:37256929:-|CDS|ENSG00000115825|control|control|control (ssRNA)
RNA: GGGAGUUCUACAGUCCGACGAUCAGGAACUCCAGCAUACUUAGCCCCUGAAGUUCUCCGGAGCAAAGGUUACAACCGUUCCCUAGAUAUGUGGUCAGUGGGAGUUAUCAUCUAUGUGAGCCUCAGUGGCACAUUUCCUUUUAACAACAGAGGAUUGAGCAUCA
B4: chr12:76028832:76028933:-|3pUTR|ENSG00000139289|msi1|FALSE|unique (ssRNA)
RNA: GGGAGUUCUACAGUCCGACGAUCAAAGGAAAAGACUGGAUAAACACAGGAUUUUCAGUAAGAAAACAACCCCAGUCUUGUCUUAGAAGCCACUUGUUGAGGAGUCUGUUGGGGGAAAAAAGAGGAUAUGCUUUUAAAGGUAGACAACAGAGGAUUGAGCAUCA
B5: chr6:41099391:41099486:+|3pUTR|ENSG00000001167|msi1_unk|total|mutant (ssRNA)
RNA: GGGAGUUCUACAGUCCGACGAUCAGUGCUUAAGCUGCCAACAGUCCGAAGAUGCUAUUUAUUUGUGUCUGUAAGUUUGUACACCGUAAUGCCAGCCUUGUUGCUGAAUUUUUUAUUUGGGGGGAGAUGACUUUGAAUUUUGUUCAACAGAGGAUUGAGCAUCA
B6: chr19:19111484:19111585:+|3pUTR|ENSG00000181035|msi1|total|mutant (ssRNA)
RNA: GGGAGUUCUACAGUCCGACGAUCAGCCUCAUGUCUAUCCCCGACCCUGCAAGCAGCUGGGUCCCCAAGAGUGCAUCUCCCCCCCGAGUUGCCUGCCCAUGCCCACCUGCUUUGUAACCUUCCCAGGAGAUUCAUGCUUGCUCUCAACAGAGGAUUGAGCAUCA
B7: chr15:82681419:82681580:-|CDS|ENSG00000103723|control|control|control (ssRNA)
RNA: GGGAGUUCUACAGUCCGACGAUCCAGUGCCCUCCGUGUCCUCUCUAGCAUCCGUGUGCCCAUCAUAGUGCCCAUCAUGAUGCUAGCUAUCAAGGAAGCCGCCUCGGACAUGUCACCCUAUGUGCGGAAAACAGCUGCCCACGCCAACAGAGGAUUGAGCAUCA
B8: chr7:20410991:20411126:+|3pUTR|ENSG00000105855|msi1|FALSE|unique (ssRNA)
RNA: GGGAGUUCUACAGUCCGACGAUCAAAUUCUGCCUCAAGCAAAGUACCACAUUUUGAAUGUUUUCUUAGAUUUUGAUUGCAAGUAGAUAUCAGCAUUUUUUAAAUGAAAAGCUAUAUUAUCUUCUCCCUUCAAGGCAGCCUAAGCAACAGAGGAUUGAGCAUCA
B9: chr17:58495858:58495960:-|CDS|ENSG00000108389|unk|total|mutant (ssRNA)
RNA: GGGAGUUCUACAGUCCGACGAUCAGAAGAGACUAAGGGACCAGCUCCAGACCCUUCUGCCCAGGAUGAGCUGGGCCGGACUUCCGAUGGCACCGGGGAGCCACCUGAACAUUGUCCUGAAACAGAAGCUGUCAGUGCACUCUCCAACAGAGGAUUGAGCAUCA
B10: chr9:26926431:26926536:-|CDS|ENSG00000137055|unk|FALSE|bound_elsewhere (ssRNA)
RNA: GGGAGUUCUACAGUCCGACGAUCAGAGGUUUGGCAAUUUUGAGUGAAACAGAAUUUCUUUCCUGUGCAAAUGAUGCUAGUAUUAGAAGGUGGCAAAUCACUGGCGAGUGUCUUGAAGUAUAUUAUGGACAUACAAAUUAUAUUCAACAGAGGAUUGAGCAUCA
B11: ENSG00000198589:be:win_1501|CDS|ENSG00000198589|bound_else_gene|NA|bound_elsewhere_windowed (ssRNA)
RNA: GGGAGUUCUACAGUCCGACGAUCUUGCUGGCCUUUAUCAUGGAAUUGUUGAAGAACUCAAUUGCUAUGCAGGAACAGAUGCUUGCCUGUAAGGGCUUCUUGGUAAUAGGAUAUAGCCUUGAAAAGUCUUCCAAAUCUCAUGUUCAACAGAGGAUUGAGCAUCA
B12: chr1:32075697:32075801:+|CDS|ENSG00000121775|unk|FALSE|unique (ssRNA)
RNA: GGGAGUUCUACAGUCCGACGAUCCGAGCUGCCAGUCCAGGCCAGCAUUCUGUUUGAGUUGCAGCUCUUCUUCUGCCAGCUCAUAGCACUCUUCGUCCACUACAUCAACAUCUACAAGACAGUGUGGUGGUAUCCACCUUCCCACAACAGAGGAUUGAGCAUCA
B13: chr7:92618090:92618217:-|CDS|ENSG00000105810|unk|FALSE|bound_elsewhere (ssRNA)
RNA: GGGAGUUCUACAGUCCGACGAUCUAUGUCCAUGUGUGGUUCUUUUGUAGCGUGAUUGGACUCCCAGGAGAAGAAGACUGGCCUAGAGAUGUUGCCCUUCCCAGGCAGGCUUUUCAUUCAAAAUCUGCCCAACCAAUUGAGAAGCAACAGAGGAUUGAGCAUCA
B14: chr4:56461171:56461272:+|3pUTR|ENSG00000128050|msi1|total|mutant (ssRNA)
RNA: GGGAGUUCUACAGUCCGACGAUCCUUCUGUAACCACAGUGACUACAAGCCGUUCUUUCUCUAUUGAAUUAUCCGGUCCAGAACCGAAGAUGUCAUUGUACACUUUAUUUCCCUCACACUGUGUUAUGCUCUGAUGUGCUAUGCCAACAGAGGAUUGAGCAUCA

The list shows a part of the results.

This assay deals with MSI1 full-length (mouse, UniProt Q61474 1-362). The assay is described as follows: nsRBNS (natural sequence RNA bind-n-seq); RBNS binding buffer (assumed for nsRBNS): 25 mM Tris pH 7.5, 150 mM KCl, 3 mM MgCl2, 0.01% Triton X-100, 500 ug/ml BSA, 20 U/ml SUPERase-In, 4 C; UNK is unkempt and MSI1 is Musashi-1; names of the RNAs are library labels; protein concentration not given here; high values mean tight binding.
Sequence of UniProt Q61474 (Q61474 whole entry): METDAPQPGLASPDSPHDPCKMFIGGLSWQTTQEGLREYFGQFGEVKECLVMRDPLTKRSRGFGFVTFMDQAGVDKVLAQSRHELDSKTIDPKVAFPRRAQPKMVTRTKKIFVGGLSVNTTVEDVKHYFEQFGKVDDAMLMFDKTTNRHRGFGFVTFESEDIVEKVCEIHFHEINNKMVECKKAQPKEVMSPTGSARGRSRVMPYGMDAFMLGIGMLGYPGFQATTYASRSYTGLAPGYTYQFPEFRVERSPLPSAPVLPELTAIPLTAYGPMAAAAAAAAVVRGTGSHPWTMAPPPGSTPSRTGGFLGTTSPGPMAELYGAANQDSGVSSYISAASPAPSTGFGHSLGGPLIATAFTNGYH
With B1, the binding signal was found to be 0.461 enrichment R. As for B2, the figure is 0.252 enrichment R; as for B3, 0.717 enrichment R. In the case of B4 it was 0.854 enrichment R. As for B5, the figure is 0.487 enrichment R; as for B6, 0.76 enrichment R.

The molecule B7 yielded a binding signal of 0.413 enrichment R. In the case of B8 it was 0.37 enrichment R; in that of B9, 0.318 enrichment R. The molecule B10 registered a binding signal of 1.39 enrichment R. As for B11, the figure is 0.344 enrichment R; as for B12, 0.42 enrichment R. In the case of B13 it was 0.383 enrichment R; in that of B14, 0.292 enrichment R.
